# Assay results published in the supplement of paper PMC8728848.
# The other results are listed elsewhere or left out.
# B1: AAL (Agrocybe aegerita), Q6WY08 (protein)
# chain: MQGVNIYNISAGTSVDLAAPVTTGDIVTFFSSALNLNAGAGNPNNTTLNLFAENGAYLLHIAFRLQENVIIFNSRQPDGPWLVEQRVSDVANQFAGIDGKAMVTVFDHGDKYQVVINEKTVIQYTKQISGLTLSLSYNATEETSIFSTVVEAVTYTGLALEHHHHHH
# Assays:
# Assay in all cases: glycan array binding signal (z-score within array); higher = stronger binding
# Settings in all cases: glycan notation: IUPAC condensed, linker removed
# [1] = molecular target: GlcNAc(b1-3)Gal(b1-4)GlcNAc(b1-3)Gal(b1-4)GlcNAc(b1-3)GalNAc
# Summary of the method: (§1)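 Negative Z-scores can be read as non-binding. The Z-score is calculated within each array and then averaged across arrays of one protein sequence at different concentrations or buffers and across linkers. Arrays, 3228 in all, were curated from the Consortium for Functional Glycomics database and kept only where the protein sequence was available.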
# [2] = molecular target: GlcNAc(b1-3)Gal(b1-4)GlcNAc(b1-3)GalNAc
# Summary of the method: as §1
# [3] = molecular target: GlcNAc(b1-3)Gal(b1-4)GlcNAc(b1-3)[GlcNAc(b1-3)Gal(b1-4)GlcNAc(b1-3)]GalNAc
# Summary of the method: as §1
# [4] = molecular target: GlcNAc(b1-3)Gal(b1-4)GlcNAc(b1-6)[Gal(b1-3)]GalNAc
# Summary of the method: as §1
# [5] = molecular target: GlcNAc(b1-3)Gal(b1-4)GlcNAc(b1-6)[GlcNAc(b1-3)Gal(b1-3)]GalNAc
# Summary of the method: as §1
# [6] = molecular target: GlcNAc(b1-3)Gal(b1-4)GlcNAc(b1-6)[GlcNAc(b1-3)]Gal(b1-4)GlcNAc
# Summary of the method: as §1
# GlcNAc(b1-3)GalNAc = molecular target: GlcNAc(b1-3)GalNAc
# Summary of the method: as §1
# GlcNAc(b1-3)Man = molecular target: GlcNAc(b1-3)Man
# Summary of the method: as §1
# [7] = molecular target: GlcNAc(b1-3)[GlcNAc(b1-4)][GlcNAc(b1-6)]GlcNAc
# Summary of the method: as §1
# [8] = molecular target: GlcNAc(b1-3)[GlcNAc(b1-6)]Gal(b1-4)GlcNAc
# Summary of the method: as §1
# [9] = molecular target: GlcNAc(b1-3)[GlcNAc(b1-6)]GalNAc
# Summary of the method: as §1
# [10] = molecular target: GlcNAc(b1-4)Gal(b1-4)GlcNAc
# Summary of the method: as §1
# GlcNAc(b1-4)GlcNAc = molecular target: GlcNAc(b1-4)GlcNAc
# Summary of the method: as §1
# [11] = molecular target: GlcNAc(b1-4)GlcNAc(b1-4)GlcNAc
# Summary of the method: as §1
# [12] = molecular target: GlcNAc(b1-4)GlcNAc(b1-4)GlcNAc(b1-4)GlcNAc(b1-4)GlcNAc
# Summary of the method: as §1
# [13] = molecular target: GlcNAc(b1-4)GlcNAc(b1-4)GlcNAc(b1-4)GlcNAc(b1-4)GlcNAc(b1-4)GlcNAc
# Summary of the method: as §1
# [14] = molecular target: GlcNAc(b1-4)[GlcNAc(b1-6)]GalNAc
# Summary of the method: as §1
# [15] = molecular target: GlcNAc(b1-6)Gal(b1-4)GlcNAc
# Summary of the method: as §1
# GlcNAc(b1-6)GalNAc = molecular target: GlcNAc(b1-6)GalNAc
# Summary of the method: as §1
# GlcNAc3Prop(b1-4)GlcNAc = molecular target: GlcNAc3Prop(b1-4)GlcNAc
# Summary of the method: as §1
# [16] = molecular target: GlcNAc6S(b1-3)Gal(b1-4)GlcNAc
# Summary of the method: as §1
# Kdn(a2-3)Gal(b1-3)GalNAc = molecular target: Kdn(a2-3)Gal(b1-3)GalNAc
# Summary of the method: as §1
# Kdn(a2-3)Gal(b1-3)GlcNAc = molecular target: Kdn(a2-3)Gal(b1-3)GlcNAc
# Summary of the method: as §1
# Kdn(a2-3)Gal(b1-4)Glc = molecular target: Kdn(a2-3)Gal(b1-4)Glc
# Summary of the method: as §1
# Kdn(a2-3)Gal(b1-4)GlcNAc = molecular target: Kdn(a2-3)Gal(b1-4)GlcNAc
# Summary of the method: as §1
# [17] = molecular target: Kdn(a2-3)Gal(b1-4)[Fuc(a1-3)]GlcNAc
# Summary of the method: as §1
# Kdn(a2-6)Gal(b1-4)GlcNAc = molecular target: Kdn(a2-6)Gal(b1-4)GlcNAc
# Summary of the method: as §1
# [18] = molecular target: Man(a1-2)Man(a1-2)Man(a1-3)Man
# Summary of the method: as §1
# [19] = molecular target: Man(a1-2)Man(a1-2)Man(a1-6)[Man(a1-3)]Man
# Summary of the method: as §1
# Man(a1-2)Man(a1-3)Man = molecular target: Man(a1-2)Man(a1-3)Man
# Summary of the method: as §1
# [20] = molecular target: Man(a1-2)Man(a1-3)[Man(a1-2)Man(a1-6)]Man
# Summary of the method: as §1
# [21] = molecular target: Man(a1-2)Man(a1-3)[Man(a1-2)Man(a1-6)]Man(a1-6)[Man(a1-2)Man(a1-2)Man(a1-3)]Man
# Summary of the method: as §1
# [22] = molecular target: Man(a1-2)Man(a1-3)[Man(a1-2)Man(a1-6)]Man(a1-6)[Man(a1-2)Man(a1-2)Man(a1-3)]Man(b1-4)GlcNAc(b1-4)GlcNAc
# Summary of the method: as §1
# [23] = molecular target: Man(a1-2)Man(a1-3)[Man(a1-6)]Man(a1-6)[Man(a1-2)Man(a1-3)]Man(b1-4)GlcNAc(b1-4)GlcNAc
# Summary of the method: as §1
# [24] = molecular target: Man(a1-2)Man(a1-6)[Man(a1-3)]Man(a1-6)[Man(a1-2)Man(a1-2)Man(a1-3)]Man
# Summary of the method: as §1
# [25] = molecular target: Man(a1-2)Man(a1-6)[Man(a1-3)]Man(a1-6)[Man(a1-2)Man(a1-2)Man(a1-3)]Man(b1-4)GlcNAc(b1-4)GlcNAc
# Summary of the method: as §1
# Man(a1-3)[Man(a1-6)]Man = molecular target: Man(a1-3)[Man(a1-6)]Man
# Summary of the method: as §1
# [26] = molecular target: Man(a1-3)[Man(a1-6)]Man(a1-6)[Man(a1-2)Man(a1-3)]Man(b1-4)GlcNAc(b1-4)GlcNAc
# Summary of the method: as §1
# [27] = molecular target: Man(a1-3)[Man(a1-6)]Man(a1-6)[Man(a1-3)]Man
# Summary of the method: as §1
# [28] = molecular target: Man(a1-3)[Man(a1-6)]Man(a1-6)[Man(a1-3)]Man(b1-4)GlcNAc(b1-4)GlcNAc
# Summary of the method: as §1
# [29] = molecular target: Man(a1-3)[Man(a1-6)]Man(b1-4)GlcNAc(b1-4)GlcNAc
# Summary of the method: as §1
# [30] = molecular target: Man(a1-3)[Man(a1-6)]Man(b1-4)GlcNAc(b1-4)[Fuc(a1-6)]GlcNAc
# Summary of the method: as §1
# Man(a1-6)Man = molecular target: Man(a1-6)Man
# Summary of the method: as §1
# Man(b1-4)GlcNAc = molecular target: Man(b1-4)GlcNAc
# Summary of the method: as §1
# MurNAc(b1-4)GlcNAc = molecular target: MurNAc(b1-4)GlcNAc
# Summary of the method: as §1
binder,measurement,setting,value
B1,glycan array binding signal (z-score),[1],-0.123
same,glycan array binding signal (z-score),[2],-0.146
same,glycan array binding signal (z-score),[3],-0.12
same,glycan array binding signal (z-score),[4],-0.134
same,glycan array binding signal (z-score),[5],-0.145
same,glycan array binding signal (z-score),[6],-0.163
same,glycan array binding signal (z-score),GlcNAc(b1-3)GalNAc,-0.155
same,glycan array binding signal (z-score),GlcNAc(b1-3)Man,-0.138
same,glycan array binding signal (z-score),[7],-0.149
same,glycan array binding signal (z-score),[8],-0.164
same,glycan array binding signal (z-score),[9],-0.158
same,glycan array binding signal (z-score),[10],-0.158
same,glycan array binding signal (z-score),GlcNAc(b1-4)GlcNAc,-0.145
same,glycan array binding signal (z-score),[11],-0.153
same,glycan array binding signal (z-score),[12],-0.16
same,glycan array binding signal (z-score),[13],-0.152
same,glycan array binding signal (z-score),[14],-0.149
same,glycan array binding signal (z-score),[15],-0.159
same,glycan array binding signal (z-score),GlcNAc(b1-6)GalNAc,-0.149
same,glycan array binding signal (z-score),GlcNAc3Prop(b1-4)GlcNAc,-0.159
same,glycan array binding signal (z-score),[16],-0.144
same,glycan array binding signal (z-score),Kdn(a2-3)Gal(b1-3)GalNAc,-0.132
same,glycan array binding signal (z-score),Kdn(a2-3)Gal(b1-3)GlcNAc,-0.135
same,glycan array binding signal (z-score),Kdn(a2-3)Gal(b1-4)Glc,-0.138
same,glycan array binding signal (z-score),Kdn(a2-3)Gal(b1-4)GlcNAc,0.108
same,glycan array binding signal (z-score),[17],-0.136
same,glycan array binding signal (z-score),Kdn(a2-6)Gal(b1-4)GlcNAc,-0.155
same,glycan array binding signal (z-score),[18],-0.151
same,glycan array binding signal (z-score),[19],-0.142
same,glycan array binding signal (z-score),Man(a1-2)Man(a1-3)Man,-0.157
same,glycan array binding signal (z-score),[20],-0.155
same,glycan array binding signal (z-score),[21],-0.153
same,glycan array binding signal (z-score),[22],-0.134
same,glycan array binding signal (z-score),[23],-0.156
same,glycan array binding signal (z-score),[24],-0.143
same,glycan array binding signal (z-score),[25],-0.162
same,glycan array binding signal (z-score),Man(a1-3)[Man(a1-6)]Man,-0.16
same,glycan array binding signal (z-score),[26],-0.153
same,glycan array binding signal (z-score),[27],-0.123
same,glycan array binding signal (z-score),[28],-0.118
same,glycan array binding signal (z-score),[29],-0.158
same,glycan array binding signal (z-score),[30],-0.164
same,glycan array binding signal (z-score),Man(a1-6)Man,-0.137
same,glycan array binding signal (z-score),Man(b1-4)GlcNAc,-0.153
same,glycan array binding signal (z-score),MurNAc(b1-4)GlcNAc,-0.161
